This is an account of results in publication PMC4336329 (PLoS ONE, 2015).

About 2,200 (0.71%) of roughly 310,000 compounds showed an effect of 50% or more. The effect is printed as a negative number. Some of the results follow.

Sequence of human ether-à-go-go-related gene (hERG) potassium channel (Q12809 whole entry, looked up): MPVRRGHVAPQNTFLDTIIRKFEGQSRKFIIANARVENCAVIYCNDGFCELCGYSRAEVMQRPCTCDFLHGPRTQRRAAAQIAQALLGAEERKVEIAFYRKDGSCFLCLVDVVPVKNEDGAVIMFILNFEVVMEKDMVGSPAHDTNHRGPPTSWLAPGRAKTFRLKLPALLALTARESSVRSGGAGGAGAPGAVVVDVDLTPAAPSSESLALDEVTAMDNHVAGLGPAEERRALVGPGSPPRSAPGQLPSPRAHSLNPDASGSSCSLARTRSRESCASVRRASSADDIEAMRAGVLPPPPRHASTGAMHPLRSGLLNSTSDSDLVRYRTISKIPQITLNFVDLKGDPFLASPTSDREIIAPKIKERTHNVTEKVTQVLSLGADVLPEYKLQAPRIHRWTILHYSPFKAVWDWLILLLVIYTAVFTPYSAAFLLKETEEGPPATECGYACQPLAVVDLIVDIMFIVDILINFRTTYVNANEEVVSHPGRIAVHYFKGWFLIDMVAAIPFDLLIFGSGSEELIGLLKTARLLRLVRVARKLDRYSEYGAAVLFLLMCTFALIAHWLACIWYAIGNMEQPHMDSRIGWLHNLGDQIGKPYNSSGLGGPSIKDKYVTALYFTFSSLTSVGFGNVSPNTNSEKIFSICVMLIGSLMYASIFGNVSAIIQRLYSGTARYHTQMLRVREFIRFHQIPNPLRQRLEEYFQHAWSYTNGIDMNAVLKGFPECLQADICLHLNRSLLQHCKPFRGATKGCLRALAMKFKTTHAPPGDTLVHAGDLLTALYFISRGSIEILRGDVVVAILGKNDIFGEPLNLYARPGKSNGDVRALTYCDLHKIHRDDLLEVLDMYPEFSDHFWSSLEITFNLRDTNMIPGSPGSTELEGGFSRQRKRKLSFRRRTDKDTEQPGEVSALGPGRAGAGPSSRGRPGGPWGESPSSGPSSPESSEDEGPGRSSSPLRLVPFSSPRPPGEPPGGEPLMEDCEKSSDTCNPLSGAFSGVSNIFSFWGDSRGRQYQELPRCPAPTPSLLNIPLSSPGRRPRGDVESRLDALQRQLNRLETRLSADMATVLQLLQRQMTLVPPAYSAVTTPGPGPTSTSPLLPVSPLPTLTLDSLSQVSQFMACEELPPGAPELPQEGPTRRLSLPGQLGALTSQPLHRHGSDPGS

The assay concerns the target human ether-à-go-go-related gene (hERG) potassium channel (human, UniProt Q12809). As to the kind of experiment: primary screen, population patch clamp on CHO cells stably expressing hERG.
Turning to `CNC(=S)N/N=C/c1cn(CCOc2ccccc2OC)c2ccccc12`, the “hERG current change (%, negative = inhibition) at 1uM” value was 5.69%.

With `COc1ccc(OC)c(C(c2nnnn2C2CCCC2)N2CCN(c3ccccc3F)CC2)c1.Cl` (stereo not drawn), the “hERG current change (%, negative = inhibition) at 1uM” value is recorded as -1.95%.

Turning to `CC(=O)OC1=Cc2c(ccc3ccc(=O)oc23)OC1(C)C`, the “hERG current change (%, negative = inhibition) at 1uM” value worked out at 6.78%.

In the case of `CCOC(=O)/C=C1\SCC(=O)N1CC(=O)NC(C)c1ccc(F)cc1` (stereo not drawn), the “hERG current change (%, negative = inhibition) at 1uM” value is listed as 7.87%.

In the case of `COC(=O)C1=C(C)N(CC2CCCO2)C(=O)/C1=C\c1ccc(O)cc1` (stereo not drawn), the “hERG current change (%, negative = inhibition) at 1uM” value is recorded as 9.92%.

On to `O=C(Nc1ccc2oc(-c3cccnc3)nc2c1)c1ccco1`, for which the “hERG current change (%, negative = inhibition) at 1uM” value was 1.53%.

Take `CCC(CO)NCc1ccc(Br)cc1.Cl` (stereo not drawn): the “hERG current change (%, negative = inhibition) at 1uM” value is 12.6%.

Consider `COc1ccc(C(C)=O)cc1COC(=O)c1cccnc1Cl`, for which the “hERG current change (%, negative = inhibition) at 1uM” value was determined as 14.8%.

For `Cc1ccc(-n2c(C)nc3cc(Cl)ccc3c2=O)nc1`, the “hERG current change (%, negative = inhibition) at 1uM” value is recorded as 15.7%.

On to `CCOc1ccc(NC(=S)Nc2cc(-c3ccccc3)[nH]n2)cc1`, for which the “hERG current change (%, negative = inhibition) at 1uM” value amounted to 5.36%.

As to `O=C(Cc1ccc(F)cc1)NC1CCCCCC1`, the “hERG current change (%, negative = inhibition) at 1uM” value turned out to be 14.9%.

Regarding `CCN(CC)C1=CC2=CC(=C(C#N)C#N)CCC2CC1` (stereo not drawn), the “hERG current change (%, negative = inhibition) at 1uM” value was 5.01%.

Take `CCCCNS(=O)(=O)c1ccc2nc(SCC(=O)Nc3ccccc3)[nH]c2c1`: the “hERG current change (%, negative = inhibition) at 1uM” value is given as 5.78%.

In the case of `COc1ccc(/C=C2\SC(N)=NC2=O)cc1`, the “hERG current change (%, negative = inhibition) at 1uM” value is 14.6%.

Turning to `CCc1ccc(/C=C2\SC(N3CCOCC3)=NC2=O)cc1`, the “hERG current change (%, negative = inhibition) at 1uM” value is recorded as -6.53%.

Turning to `COc1ccc2c(Cl)c(C(=O)NC3CCS(=O)(=O)C3)sc2c1` (stereo not drawn), the “hERG current change (%, negative = inhibition) at 1uM” value is on record as -1.99%.

As for `Cn1c(SCC(=O)Nc2ccccc2F)nnc1-c1ccc(S(=O)(=O)N2CCOCC2)cc1`, the “hERG current change (%, negative = inhibition) at 1uM” value is given as -6.44%.

As to `Brc1ccc(NC2=Nc3ccccc3CC2)cc1`, the “hERG current change (%, negative = inhibition) at 1uM” value is 9.7%.

As for `O=C(COC(=O)c1ccc(Sc2ccccc2)c([N+](=O)[O-])c1)NC1CCS(=O)(=O)C1` (stereo not drawn), the “hERG current change (%, negative = inhibition) at 1uM” value was determined as 4.79%.

Regarding `O=C(O)c1ccc(Cn2cnc3sc4c(c3c2=O)CCCC4)cc1`, the “hERG current change (%, negative = inhibition) at 1uM” value stood at 13.6%.

Consider `Cc1cccc(NC(=O)C(C)SCc2nc3sc(C)c(C)c3c(=O)[nH]2)n1` (stereo not drawn), for which the “hERG current change (%, negative = inhibition) at 1uM” value is on record as 1.56%.

Consider `Cc1cc(C(=O)COC(=O)C2COc3ccccc3O2)c(C)n1CC1CCCO1` (stereo not drawn), for which the “hERG current change (%, negative = inhibition) at 1uM” value is -4.57%.

As to `CCOC(=O)c1c(C)[nH]c(C(=O)CN2C(=O)NC3(CCCC3)C2=O)c1C`, the “hERG current change (%, negative = inhibition) at 1uM” value was determined as 9.05%.

For `COc1ccc(C(=O)NCc2nnc(SCC(=O)Nc3ccccc3OC)n2C)cc1`, the “hERG current change (%, negative = inhibition) at 1uM” value is on record as 9.14%.

As for `CCOC(=O)c1cnc(N2CCOCC2)[nH]c1=O`, the “hERG current change (%, negative = inhibition) at 1uM” value is given as 17.9%.

As for `CCNC(=O)/N=C1/NC(=O)C(C(C)C)O1` (stereo not drawn), the “hERG current change (%, negative = inhibition) at 1uM” value was determined as 20.5%.

On to `COc1ccc(C[C@@H]2CN3C(=NC[C@@H]3Cc3ccc(O)cc3)N2C[C@H](C)NC(=O)CCC2CCCCC2)cc1`, for which the “hERG current change (%, negative = inhibition) at 1uM” value is on record as -64.6%.

For the compound `CC(C(=O)N1CCC2(CC1)OCCO2)C1Sc2ccccc2NC1=O` (stereo not drawn), the “hERG current change (%, negative = inhibition) at 1uM” value is 0.324%.

`Cc1occc1-c1n[nH]c(=S)n1C`: the “hERG current change (%, negative = inhibition) at 1uM” value is given as 7.51%.

As to `Cc1ccccc1SCC(=O)N/N=C/c1ccc(F)cc1`, the “hERG current change (%, negative = inhibition) at 1uM” value was 13.4%.

Consider `COc1cc(/C=N/Nc2nc3ccccc3[nH]2)cc(Br)c1OCC(=O)N(C)C`, for which the “hERG current change (%, negative = inhibition) at 1uM” value turned out to be 0.153%.

For the compound `CN(C)C(=O)c1nc2ccc(Cl)cn2c1CN1CCCC(OCc2ccccc2)C1` (stereo not drawn), the “hERG current change (%, negative = inhibition) at 1uM” value is -2.9%.

Take `COc1ccc(Br)cc1/C=N/N1C(=O)CSC1=S`: the “hERG current change (%, negative = inhibition) at 1uM” value stood at 14.1%.

For `CCn1c(C)nc2cc(C(=O)N/N=C/c3ccccc3C)ccc21`, the “hERG current change (%, negative = inhibition) at 1uM” value was 5.3%.

As to `Clc1ccccc1CSc1nnc(/C=C/c2ccccc2)o1`, the “hERG current change (%, negative = inhibition) at 1uM” value was determined as 10.5%.

For `C=CCn1c(CNc2ccccc2)nnc1SCC(=O)N/N=C/c1ccccc1O`, the “hERG current change (%, negative = inhibition) at 1uM” value came to 10%.

Take `CC(C)(C)[C@H]1C=C(C(=O)NCc2ccccc2)O[C@@H](OCCCCO)C1`: the “hERG current change (%, negative = inhibition) at 1uM” value came out at 16.3%.

With `Cc1noc(C(C)C)c1C(=O)Nc1ccc(-c2nnc3n2CCCCC3)cc1`, the “hERG current change (%, negative = inhibition) at 1uM” value stood at 11.4%.

On to `CN(C)/C=C/C(=O)c1ccc(Cl)s1`, for which the “hERG current change (%, negative = inhibition) at 1uM” value is -32.5%.

As to `O=C(CSc1nnc2ccccn12)c1ccc(OC(F)F)cc1OC(F)F`, the “hERG current change (%, negative = inhibition) at 1uM” value was -36.3%.

Regarding `O=C1CCC(=O)N1c1ccccc1-c1ccccc1`, the “hERG current change (%, negative = inhibition) at 1uM” value is 12.5%.

Take `Cc1ccc(NC(=O)COC(=O)CNC(=O)c2ccc(Br)cc2)c(C)c1`: the “hERG current change (%, negative = inhibition) at 1uM” value is listed as 2.66%.

With `OCCC1CN(Cc2ccccc2OC2CCCC2)CCN1Cc1ccsc1` (stereo not drawn), the “hERG current change (%, negative = inhibition) at 1uM” value is -23.7%.

Turning to `Cc1ccc(N(Cc2cc3ccccc3[nH]c2=O)S(=O)(=O)c2ccccc2)cc1`, the “hERG current change (%, negative = inhibition) at 1uM” value is on record as -1.04%.

On to `COC(=O)CN1C(=O)[C@H]2[C@@H](c3ccc(C)o3)N3C(=O)CN(Cc4ccccc4)C(=O)[C@@]3(C)[C@H]2C1=O`, for which the “hERG current change (%, negative = inhibition) at 1uM” value came to 5.87%.
